{"source": "PubChem BioAssay AID1476", "about": "(National Center for Advancing Translational Sciences (NCATS), 2009)", "note": "In all, about 200,000 compounds went through this assay and about 4,500 (2.2%) were called active. This list was built around the results that the source calls inconclusive (neither active nor inactive); the mix of calls is not that of the screen. Calls come from the whole dose curve; as a rule, active = well fitted inhibition curve with a large enough effect; inconclusive = small, poorly fitted or top-dose-only effect, or effect the other way; inactive = flat fitted curve, though single readings scatter. Potencies of inconclusive entries are doubtful fits and often do not repeat. Potency is the fitted concentration of half-maximal effect; tags give direction and shape of the fitted curve."}
{"biological_target": "Cruzipain (Trypanosoma cruzi) (UniProt P25779)", "sequence (P25779 whole entry, looked up)": "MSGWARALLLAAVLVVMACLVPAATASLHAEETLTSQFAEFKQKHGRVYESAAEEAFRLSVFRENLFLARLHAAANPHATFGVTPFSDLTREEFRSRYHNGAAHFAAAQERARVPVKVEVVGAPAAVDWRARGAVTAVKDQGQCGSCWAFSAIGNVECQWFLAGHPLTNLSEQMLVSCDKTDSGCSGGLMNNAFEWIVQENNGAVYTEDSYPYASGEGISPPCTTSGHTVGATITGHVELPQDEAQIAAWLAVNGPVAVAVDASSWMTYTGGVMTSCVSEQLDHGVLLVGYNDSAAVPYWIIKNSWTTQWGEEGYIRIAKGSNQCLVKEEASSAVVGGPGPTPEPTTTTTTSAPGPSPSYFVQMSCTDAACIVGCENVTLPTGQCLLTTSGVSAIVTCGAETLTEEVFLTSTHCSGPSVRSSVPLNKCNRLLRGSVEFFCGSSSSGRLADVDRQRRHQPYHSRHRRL", "experiment": "qHTS Assay for Promiscuous and Specific Inhibitors of Cruzain (without detergent); note: nearly all actives have a fitted effect of over 40% in size;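 for max response, negative = inhibition: plate controls were enzyme without inhibitor for no effect and buffer without enzyme for full effect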", "settings": "purified cruzain, Z-FR-AMC fluorescence, no detergent", "outline": "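Detergent-free condition (0.00005% Triton X-100) in acetate buffer pH 5.5 with DTT. 1.5 nM enzyme and compound were pre-mixed 15 min, then 2 uM Z-FR-AMC substrate added; reaction progress from fluorescence change between first and third reads (60 s).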"}
{"smiles": "O=C(Nc1cccc(Cl)c1)C1C2CCC3C(CCC21)C3(Cl)Cl", "note": "(configuration not stated)", "Potency": "inconclusive: 39.8 µM [inhibitor, single point]"}
{"smiles": "CC(C)N(C(=O)Cn1cc(SCC(=O)Nc2ccccc2F)c2ccccc21)C(C)C", "max response, negative = inhibition": "inactive: -13.7%"}
{"smiles": "Cc1ncsc1C(=O)N1N=C2/C(=C/c3ccc(N4CCOCC4)cc3)CCCC2C1c1ccc(N2CCOCC2)cc1", "note": "(configuration not stated)", "Potency": "inconclusive: 20 µM [activator, partial curve]"}
{"smiles": "COc1ccc(C(=O)CSC2=C(C#N)C3(CCCCC3)C(C#N)=C(N)N2)cc1", "Potency": "inconclusive: 39.8 µM [inhibitor, single point]"}
{"smiles": "CCOC(=O)C1=NN(c2ccccc2C)C2=NC(C)=C(C(=O)OC)C(c3cccs3)N12", "note": "(configuration not stated)", "Potency": "inconclusive: 39.8 µM [activator, single point]"}
{"smiles": "COc1ccc(CCN2C(=O)CC(N3CCN(S(=O)(=O)c4ccccc4)CC3)C2=O)cc1", "note": "(configuration not stated)", "Potency": "inconclusive: 39.8 µM [activator, single point]"}
{"smiles": "Cc1ccc(CCNS(=O)(=O)c2cc(-c3cc(C)no3)ccc2C)cc1", "max response, negative = inhibition": "inactive: -11.3%"}
{"smiles": "O=C(c1cc(-c2ccc(Cl)cc2)n(-c2ccc(Cl)c(Cl)c2)n1)N1CCOCC1", "Potency": "inconclusive: 25.1 µM [activator, single point]"}
{"smiles": "COCCCNC(=O)c1c(NC(=O)Cc2coc3c(C)c(C)ccc23)sc2c1CCCC2", "max response, negative = inhibition": "inactive: -3.47%"}
{"smiles": "COCCN(Cc1cccs1)S(=O)(=O)c1cc(-c2cc(C)no2)ccc1C", "Potency": "inconclusive: 25.1 µM [activator, single point]"}
{"smiles": "CCOC(=O)N1CCN(Cc2nc3c(c(=O)n(C)c(=O)n3C)n2Cc2cccc3ccccc23)CC1", "Potency": "inconclusive: 25.1 µM [activator, partial curve]"}
{"smiles": "CN(C)S(=O)(=O)c1ccc(N2CCCC2)c(C(=O)Nc2nc3c(ccc4ccccc43)s2)c1", "Potency": "active: 7.94 µM"}
{"smiles": "COc1ccc(NC(c2nnc(-c3ccccc3)o2)c2ccccc2F)cc1Cl", "note": "(configuration not stated)", "Potency": "inconclusive: 39.8 µM [inhibitor, single point]"}
{"smiles": "CC(N)Cc1c[nH]c2ccc(O)cc12", "note": "(configuration not stated)", "max response, negative = inhibition": "inactive: 5.01%"}
{"smiles": "Cc1c2cnn(CC(=O)NCc3ccc(F)cc3)c(=O)c2c(C)n1Cc1cccc(Cl)c1", "Potency": "inconclusive: 39.8 µM [inhibitor, single point]"}
{"smiles": "COc1cc(/C=C(\\C#N)C(N)=O)ccc1OS(=O)(=O)c1ccc(C)cc1", "Potency": "inconclusive: 31.6 µM [activator, single point]"}
{"smiles": "O=C(Nc1nnc(N2CCCCCC2)s1)Nc1cc(F)ccc1F", "max response, negative = inhibition": "inactive: -12%"}
{"smiles": "CCOC(=O)c1c(C)[nH]c(C(=O)CN2C(=O)NC(C)(c3ccc(C)cc3)C2=O)c1C", "note": "(configuration not stated)", "Potency": "inconclusive: 31.6 µM [activator, single point]"}
{"smiles": "COc1ccc(NC(=O)CC2C(=O)N(c3cccc(OC)c3)C(=O)N2CCc2cccs2)cc1", "note": "(configuration not stated)", "max response, negative = inhibition": "inactive: 7.71%"}
{"smiles": "Cc1ccc(NC(=O)Cn2c(=O)n(Cc3nc(-c4ccccc4)no3)c(=O)c3cc4c(cc32)OCO4)cc1F", "Potency": "active: 12.6 µM"}
{"smiles": "O=C(COc1ccccc1F)Nc1ccc2nc(SCCOc3ccccc3)sc2c1", "Potency": "inconclusive: 39.8 µM [inhibitor, single point]"}
{"smiles": "CCc1ccc(OC(C)C(=O)N2CCC(c3nc4ccccc4o3)CC2)cc1", "note": "(configuration not stated)", "Potency": "inconclusive: 25.1 µM [activator, single point]"}
{"smiles": "CC(=O)Nc1ccc(NC(=O)CCc2nc3cccnc3n2Cc2cccs2)cc1", "max response, negative = inhibition": "inactive: 14.1%"}
{"smiles": "CCn1nc(C)c2c(-c3ccccc3)cc(=O)n(C(C)C(=O)NCCC(C)C)c21", "note": "(configuration not stated)", "Potency": "inconclusive: 25.1 µM [activator, single point]"}
{"smiles": "COc1ccccc1CN(C(=O)CCl)C(C(=O)NC1CCCCC1)c1ccncc1", "note": "(configuration not stated)", "Potency": "inconclusive: 39.8 µM [inhibitor, single point]"}
{"smiles": "CC1=C/C(=N\\NC(=O)c2ccc(O)cc2)CC1", "max response, negative = inhibition": "inactive: -13.5%"}
{"smiles": "C=CCn1c(C)cc(C(=O)Cn2ncc(Cl)c(Cl)c2=O)c1C", "Potency": "inconclusive: 39.8 µM [inhibitor, single point]"}
{"smiles": "CCN(c1ccccc1)S(=O)(=O)c1ccc(Cl)c(NC(=O)COC(=O)c2ccc(Cl)c(N)c2)c1", "Potency": "active: 25.1 µM"}
{"smiles": "COc1ccc(-c2nc(C3CCCCC3)no2)cc1OC", "Potency": "inconclusive: 39.8 µM [activator, single point]"}
{"smiles": "Cc1cc2cc(CN(Cc3cccs3)C(=S)NCc3ccco3)c(=O)[nH]c2cc1C", "Potency": "inconclusive: 31.6 µM [inhibitor, single point]"}
{"smiles": "COc1ccc(-c2nc(SCC(=O)NC3CCCC3)c(-c3ccc(F)cc3)[nH]2)cc1", "Potency": "inconclusive: 31.6 µM [inhibitor, single point]"}
{"smiles": "O=C(/C(=C/c1ccc(Cl)cc1)c1nc2ccccc2[nH]1)c1ccccc1", "Potency": "inconclusive: 31.6 µM [inhibitor, single point]"}
{"smiles": "O=C(Oc1oc(-c2ccco2)nc1C=Nc1ccc(Cl)cc1)c1ccco1", "Potency": "inconclusive: 25.1 µM [inhibitor, single point]"}
{"smiles": "CC(C)(C)OC(=O)N1CCC(c2c(C(=O)NCc3cccc(Cl)c3)cnn2-c2ccc(F)cc2)CC1", "max response, negative = inhibition": "inactive: -2.53%"}
{"smiles": "O=C(Nc1cc(-c2nc3ccccc3o2)ccc1Cl)c1sc2c([N+](=O)[O-])cccc2c1Cl", "max response, negative = inhibition": "inactive: 5.35%"}
{"smiles": "Cc1cc(C)n(C(C)CC(=O)Nc2cccc(C(F)(F)F)c2)n1", "note": "(configuration not stated)", "max response, negative = inhibition": "inactive: 16%"}
{"smiles": "CCN(CC)c1ccc(NC(=O)C2CCN(c3nnc(-n4cccc4)s3)CC2)c(C)c1", "max response, negative = inhibition": "inactive: 9.98%"}
{"smiles": "CCN(c1ccccc1)S(=O)(=O)c1ccc(NC(=O)c2nc(SC)ncc2Cl)cc1", "max response, negative = inhibition": "inactive: -25%"}
{"smiles": "COc1nc(C#N)nc(N(C)C)n1", "Potency": "active: 12.6 µM"}
{"smiles": "CC(=O)OC1CCC23CC1(C)CCC2C(C)(C)CC3OC(C)=O", "note": "(configuration not stated)", "max response, negative = inhibition": "inactive: 17.7%"}
{"smiles": "Cc1cccc(-n2c(SCC(=O)Nc3ncc(Cl)cc3Cl)nc3ccccc32)c1", "Potency": "inconclusive: 31.6 µM [inhibitor, single point]"}
{"smiles": "Cc1ccc(-n2c(SCC(=O)N/N=C/C=C/c3ccccc3[N+](=O)[O-])nc3ccccc3c2=O)cc1", "Potency": "active: 25.1 µM"}
